± gives the standard deviation of the averaged measurements. Whole data set: some 33,000 sequences, median “E-score (dimensionless, -0.5 to 0.5)” near -0.046, cut for the highest 2% near 0.36. The list shows a part of the results.
Test system: T1, SpTbr T-box DNA-binding domain (GST fusion)
T1 sequence: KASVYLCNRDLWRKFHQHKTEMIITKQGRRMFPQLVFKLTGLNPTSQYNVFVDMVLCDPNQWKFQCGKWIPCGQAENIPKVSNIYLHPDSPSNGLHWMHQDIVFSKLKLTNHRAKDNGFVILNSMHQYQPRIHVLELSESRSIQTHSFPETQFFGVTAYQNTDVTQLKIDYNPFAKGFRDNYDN
Assay: PBM E-score of 8-mer (E-score (dimensionless, -0.5 to 0.5)); Tbr is Tbrain of the sea star Patiria miniata (Pm) or the sea urchin Strongylocentrotus purpuratus (Sp); higher = stronger binding preference; most listed sequences are background and not binding sites
Settings: the construct has about 5 more residues each side
Outline: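 Each ungapped 8-mer received an enrichment E-score from the Universal PBM Analysis Suite, averaged over duplicate arrays. The proteins were Tbr T-box DNA-binding domains, covering the whole T-box plus about five flanking residues, fused to GST and expressed in BL21 E. coli at 20 °C before glutathione affinity purification. Universal Agilent oligonucleotide arrays were made double-stranded by primer extension and incubated with 200 nM protein in PBS (pH 7.5). The arrays were then scanned and quantified, and every 8-mer was scored from probe intensities.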

| Sequence | PBM E-score of 8-mer |
| --- | --- |
| CCGAGAGG | 0.0297 ± 0.035 |
| GTTCGGGA | -0.236 ± 0.063 |
| GAGCAAGA | -0.187 ± 0.011 |
| CAGCCTCG | -0.0479 ± 0.0025 |
| CCTGCCCG | -0.0604 ± 0.037 |
| AGAATGTG | 0.304 ± 0.03 |
| GTGAGATA | 0.313 ± 0.023 |
| AGACTAAA | -0.119 ± 0.087 |
| CACGCCAG | 0.231 ± 0.0028 |
| ATCCGAGC | -0.175 ± 0.052 |
| CCACGAAG | -0.13 ± 0.028 |
| CTTTACCA | 0.00926 ± 0.048 |
| CCGTGCCG | -0.0886 ± 0.13 |
| CGTACAAA | -0.24 ± 0.015 |
| CATTATCA | 0.108 ± 0.039 |
| ACCGCTAA | 0.0775 ± 0.031 |
| AGACAATA | -0.0805 ± 0.021 |
| AGCGAAAG | -0.123 ± 0.022 |
| AATTTAAT | -0.319 ± 0.045 |
| GCGAGAGC | 0.217 ± 0.043 |
| GCAAATGA | -0.0363 ± 0.045 |
| AATTTGCT | -0.0196 ± 0.11 |

| Sequence | PBM E-score of 8-mer |
| --- | --- |
| CAAATGCA | -0.268 ± 0.027 |
| TAGTATGA | -0.0698 ± 0.043 |
| CGAAAGAG | -0.01 ± 0.052 |
| CCGAGCCA | -0.0292 ± 0.017 |
| TCAGGAAA | 0.02 ± 0.024 |
| ATATTGGA | -0.239 ± 0.051 |
| AAGTGATC | 0.0544 ± 0.029 |
| CTCGGTCA | -0.12 ± 0.045 |
| GATTACGC | 0.0985 ± 0.028 |
| ACCCGGGG | -0.0776 ± 0.019 |
| TAGTGGGA | -0.0317 ± 0.03 |
| CCTACGCC | 0.0386 ± 0.019 |
| AGAGCGAG | -0.192 ± 0.026 |
| ACACACCA | 0.287 ± 0.013 |
| GTAGACGA | -0.126 ± 0.006 |
| ATCACGCC | 0.403 ± 0.0051 |
| GACCAACA | 0.0574 ± 0.006 |
| ATAGAAGA | -0.317 ± 0.033 |
| GCATCATA | 0.0807 ± 0.004 |
| ACATAGGT | 0.221 ± 0.02 |
| TCATAGAA | -0.301 ± 0.033 |
| GACGATAC | -0.155 ± 0.015 |

| Sequence | PBM E-score of 8-mer |
| --- | --- |
| GAAAGTAC | -0.136 ± 0.033 |
| AGAGCCCC | -0.0852 ± 0.056 |
| ACACTTGA | 0.347 ± 0.0096 |
| CCACATAC | 0.105 ± 0.015 |
| GGAGCGAA | -0.0764 ± 0.054 |
| ATGGCATC | -0.0575 ± 0.033 |
| AGATTTCA | -0.0179 ± 0.064 |
| TATTAAGA | -0.213 ± 0.075 |
| ATCTATTC | 0.0975 ± 0.04 |
| GTATTTGA | -0.208 ± 0.0046 |
| CCTGTTCC | -0.1238 ± 0.00089 |
| CGTCGCAC | 0.327 ± 0.0036 |
| ACGGGATG | -0.0468 ± 0.046 |
| CGGTACGC | 0.0539 ± 0.0026 |
| GGGCAGTA | -0.153 ± 0.027 |
| GGGTCACA | 0.225 ± 0.021 |
| CGCCATAA | 0.0812 ± 0.1 |
| GAGAACAC | 0.253 ± 0.04 |
| GAACCACA | -0.0748 ± 0.058 |
| TCGAAGCA | -0.204 ± 0.022 |
| ACCCAGAT | -0.0905 ± 0.038 |
| ATAAGTCC | -0.249 ± 0.073 |

| Sequence | PBM E-score of 8-mer |
| --- | --- |
| GACGTGAC | 0.235 ± 0.032 |
| CGGACGTC | -0.0698 ± 0.06 |
| TACGGACA | -0.168 ± 0.017 |
| AGAATGTC | -0.146 ± 0.031 |
| ATCTTGTA | -0.11 ± 0.075 |
| TACACGCA | 0.0891 ± 0.028 |
| TAAGCCAA | -0.358 ± 0.0043 |
| ACACAATA | 0.302 ± 0.021 |
| GACAGTGA | 0.167 ± 0.038 |
| GAAAGCGA | 0.0237 ± 0.13 |
| AACTGCTA | 0.0567 ± 0.044 |
| AGCCTCTG | -0.113 ± 0.019 |
| GATCTAGA | -0.0935 ± 0.028 |
| ACATCCAT | -0.0117 ± 0.044 |
| AACTAAGA | -0.0642 ± 0.072 |
| CCCAAAGA | -0.272 ± 0.059 |
| CAGGTGTC | 0.4679 ± 0.0019 |
| CGCCAAAC | 0.145 ± 0.012 |
| GAACCTAA | -0.296 ± 0.014 |
| GGAGGGAA | -0.166 ± 0.0078 |

Reference: the supplement of paper PMC4166925
